# Among all 52,000 compounds or so, about 4,300 (8.3%) were called active. No stated cut-off is given here; in the data, active means survival mostly below about 52% (no sharp cut-off); inactive means mostly above about 56%. This is one part of the list.
# Test system: DeltatarO mutant
# Assay: growth inhibition of S. aureus wild type versus tarO mutant, primary screen, teichoic acid synthesis inhibitors, RN4220, OD600 (AID 463173)
# Conditions: OD600, 18 h, active compounds read low, screened at 18.75 µg/mL (by protocol)
row,SMILES,survival
1,CC1CCc2c(sc3nnn(CC(=O)Nc4ccccc4Cl)c(=O)c23)C1 (centres undefined),inactive: 71%
2,Fc1ccc(NCc2nc3ccccc3n2CCOc2ccccc2Cl)cc1,inactive: 91%
3,CC1(C)Cc2c(sc(/N=C/N3CCCC3)c2C#N)C(C)(C)N1,inactive: 108%
4,COc1ccc(-n2c(=O)c3c(c4cc(OC)ccc4n3C)n(Cc3c(F)cccc3Cl)c2=O)cc1,inactive: 86%
5,CSc1ncc2c(n1)-c1ccccc1N(Cc1ccccc1C)S2(=O)=O,inactive: 94%
6,COc1cccc(CCNC(=O)c2cnc3sc(N4CCCC4)nn3c2=O)c1,inactive: 84%
7,Cc1cccc(-n2c3nc(=O)n(C)c(=O)c-3cc3c(C)nn(-c4ccccc4)c32)c1C,inactive: 85%
8,COC1(C(F)(F)F)NC(=O)N(c2ccc(F)cc2)C1=O (centres undefined),inactive: 72%
9,COc1ccc(-c2cc(C(N)=O)on2)c(OC)c1,inactive: 99%
10,COCCn1c(C)nnc1SCC1CCCO1 (centres undefined),inactive: 80%
11,COc1cc(Cl)c(S(=O)(=O)N2CCN(c3c(C)cccc3C)CC2)cc1Cl,inactive: 69%
12,COc1ccc(CNc2nc(-c3ccccc3)nn2C(=O)c2ccccc2OC)cc1,inactive: 102%
13,CCOC(=O)c1cc2c(=O)n3ccccc3nc2n(CC2CCCO2)c1=NC(=O)c1ccc(OCC)cc1 (centres undefined),inactive: 51%
14,CN(Cc1ccccc1)C(=O)c1c[nH]c2ccc(S(=O)(=O)Nc3ccccc3F)cc2c1=O,inactive: 76%
15,Cc1ccc(CCC(=O)Nc2ccc(C(C)C)cc2)o1,inactive: 85%
16,CCCn1cc(S(=O)(=O)c2ccc(OCC)cc2)c(=O)c2cc(C)ccc21,inactive: 103%
17,CCN(CC)c1ccc2c(COC(C)=O)cc(=O)oc2c1,inactive: 82%
18,O=C1NCN(c2ccccc2)C12CCN(c1nnnn1-c1ccccc1)CC2,inactive: 88%
19,CCCCC(=O)Nc1cc(-c2cn3cccnc3n2)ccc1C,inactive: 102%
20,CCOc1ccc(-c2c(C)nn3c(C)c(C(=O)NC(C)c4ccccc4)cnc23)cc1OCC (centres undefined),inactive: 60%

row,SMILES,survival
1,Cc1c(-c2cccc(NC(=O)Cc3ccccc3)c2)nc2ncccn12,inactive: 77%
2,O=C(CCSCc1ccccc1Cl)NCCc1ccccc1,inactive: 71%
3,O=C(Cn1ccn(-c2ccc(F)c(F)c2)c(=O)c1=O)NCc1ccccc1,inactive: 62%
4,CCN(C(=O)c1nn(C)c2c1CSc1ccccc1-2)c1cccc(C)c1,inactive: 99%
5,COc1ccc(NC(=O)Cn2nc(C)c3c(C)n(-c4ccccc4)nc3c2=O)cc1OC,inactive: 55%
6,COc1cc(C(=O)OCc2cc(=O)n3ccsc3n2)cc(OC)c1OC,active: -2%
7,COc1ccc(S(=O)(=O)NCC(c2ccco2)S(=O)(=O)c2cccs2)cc1OC (centres undefined),inactive: 70%
8,Oc1ccc(NC(=S)Nc2ccc(O)cc2)cc1,inactive: 80%
9,CCOc1cc(-c2cc(C(=O)O)c3c(-c4ccccc4)[nH]nc3n2)ccc1O,inactive: 53%
10,Cc1cc(C=C(C#N)C#N)c(C)n1-c1ccc(N2CCOCC2)cc1,inactive: 60%
11,CCOc1cc(C(=O)N2CC(=O)Nc3ccc(F)cc3C2c2ccccc2)cc(OCC)c1OCC (centres undefined),inactive: 78%
12,CC(C)OCCCNC(=O)Cn1c(-c2cccs2)cc2cc(F)ccc21,inactive: 83%
13,COc1ccc(N2CCN(CCCNC(=O)c3sc4ncccc4c3-n3cccc3)CC2)cc1,inactive: 101%
14,CCn1c(=O)c(C(=O)Nc2nccs2)c(O)c2ccccc21,inactive: 100%
15,COc1cccc(-c2noc(COc3cccc(C)c3C)n2)c1,inactive: 84%
16,COC(=O)c1cn(-c2ccccc2)nc1C(=O)OC,inactive: 96%
17,CCOc1ccc(CCNC(=O)C2CC(=O)N(CCc3ccc(OC)c(OC)c3)C2)cc1OCC (centres undefined),inactive: 91%
18,CCOC(=O)c1c(NC(=O)COc2ccc(OC)cc2)sc(C(=O)N(CC)CC)c1C,active: 3%
19,CCCCN(CC)CCNC(=O)c1nn(-c2ccc(OC)cc2)c(=O)c2c1c1ccccc1n2C,inactive: 96%
20,N#C/C(=C\c1ccccc1)c1nc(-c2cc3c(ccc4ccccc43)oc2=O)cs1,inactive: 120%

row,SMILES,survival
1,CC1CCN(C(=O)CS(=O)(=O)Cc2ccccc2)CC1,inactive: 80%
2,CCCC(=O)OCc1cnc(C)c2oc(=O)c(C(=O)Nc3ccc(F)cc3C)cc12,inactive: 88%
3,Cc1cccc(CNC(=O)C2CCN(S(=O)(=O)c3cccc4nonc34)CC2)c1,inactive: 83%
4,Cc1ccc2[nH]cc(NC(=O)NCCO)c(=O)c2c1,inactive: 88%
5,Cc1ccc(C)c(NC(=O)C2CCCN2S(=O)(=O)c2ccc3c(c2)CCCC(=O)N3)c1 (centres undefined),inactive: 87%
6,CCC1=Nc2cc(C(=O)N3CCC(C)CC3)ccc2Sc2ccc(C)cc21,active: -4%
7,COc1ccc(-c2noc(CNC(=O)c3ccc(OC)cc3OC)n2)cc1,active: 62%
8,O=S(=O)(NCc1ccco1)c1ccc(S(=O)(=O)N2CCCCC2)cc1,inactive: 78%
9,COCCNC(=O)c1sc2nc3n(c(=O)c2c1C)CCC3,inactive: 86%
10,COc1ccc(N2CC(c3nc(-c4ccccc4C)no3)CC2=O)cc1Cl (centres undefined),inactive: 83%
11,CCc1ccc(NS(=O)(=O)c2ccc3[nH]cc(C(=O)NCCc4ccccc4)c(=O)c3c2)cc1,inactive: 87%
12,CCOC(=O)c1cccc(NC(=O)Cn2cnc3nc4c(cc3c2=O)CCCC4)c1,inactive: 94%
13,CCN(CC)CCCNC(=O)c1ccc2c(c1)NC(=O)C(CS(=O)(=O)Cc1ccc(F)cc1Cl)N2 (centres undefined),inactive: 134%
14,C=Cn1c(C)c(C(C#N)=C(C#N)C#N)c2c1CCCC2,active: 2%
15,COc1ccc(N2CCN(C(=O)c3cc4c(s3)-c3c(C)cccc3OC4)CC2)cc1,inactive: 94%
16,Cc1cc(C)cc(NC(=O)C2CCCN(c3nnc(-n4c(C)ccc4C)s3)C2)c1 (centres undefined),inactive: 85%
17,CCCc1ccc(OC(=O)c2sc3ncn(Cc4cccc(F)c4)c(=O)c3c2C)cc1,inactive: 89%
18,COc1ccc(NC(=O)Cn2c(SCc3c(F)cccc3Cl)nc3ccncc32)cc1OC,inactive: 91%
19,COCCn1c(SCC(=O)Nc2ccc(Br)cc2)nc2c([nH]c3ccccc32)c1=O,inactive: 83%

# — PubChem BioAssay AID463173 (ICCB-Longwood Screening Facility, Harvard Medical School, 2010)
